{"source": "paper PMC10668032", "note": "The other results are listed elsewhere or left out. At the low end of the ranking the order means little."}
{"biological_target": "SIX1-Q177R homeodomain (UniProt Q15475)", "assay": "universal protein binding microarray", "conditions": "Universal all-10-mer PBM (8x60K, AMADID 030236), 300 nM GST-tagged protein, Alexa Fluor 488 anti-GST; buffer, salt, pH and temperature not stated; high values mean tight binding; most listed sequences are background and not binding sites; double strand, one strand shown", "units": {"binding signal": "E-score"}}
{"sequence": "ATTTCATC", "binding signal": 0.017}
{"sequence": "GGCTGCAC", "binding signal": -0.0522}
{"sequence": "AGCTCCCT", "binding signal": 0.0251}
{"sequence": "ATTTACTC", "binding signal": 0.115}
{"sequence": "AAGAGTAA", "binding signal": 0.154}
{"sequence": "TCGCATCA", "binding signal": -0.144}
{"sequence": "GAGTGGCC", "binding signal": -0.117}
{"sequence": "CTTCCCTA", "binding signal": -0.119}
{"sequence": "CCAAGATA", "binding signal": 0.144}
{"sequence": "CAATCTTA", "binding signal": -0.145}
{"sequence": "CCAAAGGC", "binding signal": 0.0858}
{"sequence": "CCCGGAAG", "binding signal": 0.102}
{"sequence": "ACGGACGG", "binding signal": -0.037}
{"sequence": "GCCTAAGC", "binding signal": -0.136}
{"sequence": "CTCAAAAA", "binding signal": -0.149}
{"sequence": "CACTTGCC", "binding signal": 0.227}
{"sequence": "ACGCAAGT", "binding signal": 0.0826}
{"sequence": "CCTTCCGC", "binding signal": 0.0209}
{"sequence": "CGTAGTGC", "binding signal": 0.0725}
{"sequence": "CACTCCCA", "binding signal": 0.273}
{"sequence": "AACATACT", "binding signal": 0.0504}
{"sequence": "ATCAGCCA", "binding signal": -0.118}
{"sequence": "AAAATCAA", "binding signal": -0.184}
{"sequence": "CAGCAGCA", "binding signal": -0.0383}
{"sequence": "AGGCGCTA", "binding signal": -0.131}
{"sequence": "GCATTTTA", "binding signal": -0.207}
{"sequence": "CATATGTA", "binding signal": -0.144}
{"sequence": "GTATCGAA", "binding signal": 0.199}
{"sequence": "ACCGCAAG", "binding signal": 0.0288}
{"sequence": "CCTAGCAC", "binding signal": 0.125}
{"sequence": "CATCCGAA", "binding signal": -0.0759}
{"sequence": "ACAAAAGC", "binding signal": -0.255}
{"sequence": "GGTCTCTA", "binding signal": -0.128}
{"sequence": "ATCGCTTA", "binding signal": -0.176}
{"sequence": "CGGCTTCA", "binding signal": -0.259}
{"sequence": "CTTAAACC", "binding signal": 0.0467}
{"sequence": "GTACATAA", "binding signal": -0.0595}
{"sequence": "CCACGGAA", "binding signal": 0.141}
{"sequence": "GAATGGCC", "binding signal": -0.205}
{"sequence": "GGGGCGCA", "binding signal": 0.00559}
{"sequence": "TCAGCGCA", "binding signal": -0.189}
{"sequence": "CCGAAATC", "binding signal": -0.166}
{"sequence": "ACCTTGGA", "binding signal": 0.0007}
{"sequence": "TATCTTCA", "binding signal": -0.111}
{"sequence": "GTGGAAAA", "binding signal": -0.0739}
{"sequence": "AGGATTTC", "binding signal": -0.164}
{"sequence": "CGCCTCGA", "binding signal": -0.0502}
{"sequence": "ACTGTTTG", "binding signal": -0.144}
{"sequence": "ACGCTCTA", "binding signal": 0.122}
{"sequence": "CATCAAAG", "binding signal": -0.159}
{"sequence": "ATTCCCCA", "binding signal": -0.0179}
{"sequence": "ACGGCGTA", "binding signal": 0.0966}
{"sequence": "CAGCCCGC", "binding signal": -0.148}
{"sequence": "ATCTGGAG", "binding signal": 0.166}
{"sequence": "AGGATCTC", "binding signal": -0.103}
{"sequence": "CTATACTC", "binding signal": 0.0376}
{"sequence": "GGTAAAAA", "binding signal": -0.19}
{"sequence": "GGTCCTTA", "binding signal": -0.0396}
{"sequence": "TAACGCCA", "binding signal": 0.16}
{"sequence": "ACATGTAT", "binding signal": -0.192}
{"sequence": "AGGTTGCG", "binding signal": -0.0164}
{"sequence": "ACACAGAG", "binding signal": 0.12}
{"sequence": "CCTTGAAG", "binding signal": -0.0733}
{"sequence": "GGCCCCCA", "binding signal": -0.11}
{"sequence": "ATCTGCAC", "binding signal": 0.0165}
{"sequence": "CGCTGGTC", "binding signal": 0.0211}
{"sequence": "GCCGCCGC", "binding signal": -0.219}
{"sequence": "CCGGGATC", "binding signal": 0.164}
{"sequence": "CCGGATGC", "binding signal": -0.00094}
{"sequence": "CATTACCA", "binding signal": -0.00976}
{"sequence": "CGTGCCGA", "binding signal": 0.0313}
{"sequence": "GTAGTAGA", "binding signal": 0.0222}
{"sequence": "GAACGAGA", "binding signal": -0.222}
{"sequence": "GCGTTGAA", "binding signal": 0.00428}
{"sequence": "ATAATATA", "binding signal": -0.0123}
{"sequence": "CGTCAATA", "binding signal": -0.141}
{"sequence": "GAGCAGTA", "binding signal": -0.16}
{"sequence": "ACAAGGGG", "binding signal": 0.185}
{"sequence": "GCAGAGGA", "binding signal": -0.0276}
{"sequence": "CCCGGTGA", "binding signal": -0.0127}
{"sequence": "AGGACCCC", "binding signal": 0.205}
{"sequence": "GAGACTGA", "binding signal": -0.316}
{"sequence": "AAGTCCGG", "binding signal": -0.157}
{"sequence": "ACCATCGA", "binding signal": 0.0401}
{"sequence": "ATAAAATG", "binding signal": -0.126}
{"sequence": "GGGGCGAC", "binding signal": -0.0502}
{"sequence": "CCGAAAAA", "binding signal": -0.0149}
{"sequence": "ACACTTGG", "binding signal": 0.329}
{"sequence": "GGCACATA", "binding signal": -0.0815}
{"sequence": "ACGGCGTC", "binding signal": -0.0211}
{"sequence": "AAATCGAG", "binding signal": -0.034}
{"sequence": "ATTGCTTC", "binding signal": 0.0173}
{"sequence": "AACACTTC", "binding signal": 0.326}
{"sequence": "ATTTACCA", "binding signal": -0.0462}
{"sequence": "ACTAAATG", "binding signal": 0.0262}
{"sequence": "AACACCAA", "binding signal": 0.467}
{"sequence": "GAATAAGC", "binding signal": -0.0672}
{"sequence": "ACTTAAGT", "binding signal": -0.214}
{"sequence": "AGTCACTA", "binding signal": 0.0997}
{"sequence": "GGGGTAAA", "binding signal": 0.29}
{"sequence": "CTCTGCAG", "binding signal": -0.163}
{"sequence": "ATCAAGGC", "binding signal": 0.0359}
{"sequence": "ACTTGTAA", "binding signal": -0.0445}
{"sequence": "CACGGTGC", "binding signal": 0.267}
{"sequence": "CGCGAGGC", "binding signal": -0.0994}
{"sequence": "TAAAACGA", "binding signal": -0.132}
{"sequence": "CAGACTCG", "binding signal": -0.0491}
{"sequence": "CGGAAATC", "binding signal": -0.133}
{"sequence": "TATCCGCA", "binding signal": 0.0207}
